# Among all 310,000 compounds or so, about 2,200 (0.71%) showed an effect of 50% or more. The effect is printed as a negative number. The list shows a part of the results.
# Target: human ether-à-go-go-related gene (hERG) potassium channel (human, UniProt Q12809)
# Assay: primary screen, population patch clamp on CHO cells stably expressing hERG
# human ether-à-go-go-related gene (hERG) potassium channel, sequence (Q12809 whole entry, looked up): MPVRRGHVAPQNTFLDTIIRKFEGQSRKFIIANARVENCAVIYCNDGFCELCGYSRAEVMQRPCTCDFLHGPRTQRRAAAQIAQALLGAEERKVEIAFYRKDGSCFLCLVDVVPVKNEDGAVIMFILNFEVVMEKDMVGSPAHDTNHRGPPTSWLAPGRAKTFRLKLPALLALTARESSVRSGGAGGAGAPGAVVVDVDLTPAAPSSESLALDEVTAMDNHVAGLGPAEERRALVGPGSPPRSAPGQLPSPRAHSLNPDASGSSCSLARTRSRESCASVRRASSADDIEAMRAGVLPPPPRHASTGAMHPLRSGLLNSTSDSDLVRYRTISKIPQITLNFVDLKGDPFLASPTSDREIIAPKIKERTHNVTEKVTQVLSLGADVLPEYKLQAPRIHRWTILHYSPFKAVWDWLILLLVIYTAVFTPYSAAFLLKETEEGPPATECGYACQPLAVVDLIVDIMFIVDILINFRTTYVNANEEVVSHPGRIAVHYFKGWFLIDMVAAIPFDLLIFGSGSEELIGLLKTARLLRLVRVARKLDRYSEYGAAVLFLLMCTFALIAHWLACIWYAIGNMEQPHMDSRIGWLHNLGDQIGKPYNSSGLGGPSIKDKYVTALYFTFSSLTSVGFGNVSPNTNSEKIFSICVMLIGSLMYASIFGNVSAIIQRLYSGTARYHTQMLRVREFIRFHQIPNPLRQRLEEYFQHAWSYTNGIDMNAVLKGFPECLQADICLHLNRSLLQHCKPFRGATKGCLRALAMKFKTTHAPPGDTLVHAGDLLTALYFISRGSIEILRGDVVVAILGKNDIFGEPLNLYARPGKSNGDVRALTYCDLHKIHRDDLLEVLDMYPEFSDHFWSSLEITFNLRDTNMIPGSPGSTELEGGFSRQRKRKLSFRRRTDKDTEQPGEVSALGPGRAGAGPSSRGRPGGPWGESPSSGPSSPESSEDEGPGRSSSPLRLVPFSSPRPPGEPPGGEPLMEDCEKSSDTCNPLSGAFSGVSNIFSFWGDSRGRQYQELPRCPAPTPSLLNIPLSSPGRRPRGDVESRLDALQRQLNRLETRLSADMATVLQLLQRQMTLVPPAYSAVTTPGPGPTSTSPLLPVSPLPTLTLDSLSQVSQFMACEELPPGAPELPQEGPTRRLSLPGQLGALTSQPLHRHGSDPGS
row,SMILES,"hERG current change (%, negative = inhibition) at 1uM [%]"
1,O=C1CSC(=Nc2ccccc2)N1Cc1ccccc1,13.2
2,Cc1noc(/C=C/N(C)C)c1S(=O)(=O)N1CCCC(C(=O)NCc2ccco2)C1 (stereo not drawn),-4.62
3,O=C(CCCN1C(=O)C(c2ccccc2)Oc2cccnc21)NCCc1ccc(Cl)cc1 (stereo not drawn),15.3
4,O=C(Cc1ccccc1[N+](=O)[O-])Nc1ccc2c(c1)OCO2,7.2
5,COc1ccnc(N=CNOCc2ccc(C)cc2)c1C#N,10.5
6,CN(CC(=O)Nc1ccc(Cl)c(C(F)(F)F)c1)C(=O)c1cc(=O)c2ccccc2o1,11.1
7,O=C(c1ccccc1)c1ccc(O)cc1O,5.57
8,O=C(CCN1C(=O)C2C3CCC(C3)C2C1=O)OCC(=O)c1ccc(Br)cc1 (stereo not drawn),3.48
9,O=c1c(N2CCOCC2)c(N2CCOCC2)c1=O,8.97
10,CCc1ccc(OCCn2cccn2)cc1,13.2
11,CCc1ccc(N2CC(O)=C(c3nc4ccccc4c(=O)[nH]3)C2=N)cc1,5.36
12,CCOC(=O)CSc1nnc(-c2ccccc2OC)o1,-1.53
13,COc1ccc(-c2cc(C(=O)N3CCN(c4ccccc4OC)CC3)no2)cc1OC,9.61
14,O=C(CSc1cccc[n+]1[O-])N1CCc2ccccc21,20.4
15,CC(C)NC(=O)CSc1nc(Cc2cccs2)nc2ccccc12,5.83
16,CCCCNC(=O)OC(C)CNC(=O)Oc1cccc(C)c1 (stereo not drawn),7.31
17,Cc1ccc(CN2C(=O)S/C(=C\c3ccccc3OCC(=O)O)C2=O)cc1,6.1
18,C=C(C)c1cccc(C(C)(C)NC(=O)NNC(=O)c2ccccc2O)c1,8.29
19,Cc1ccc(C(=O)NC(=S)NNC(=O)c2ccccc2O)cc1,-1.77
20,Brc1ccccc1-c1csnn1,12.5
21,COc1cccc(NC(=O)CN2C(=O)NC3(CCc4ccccc43)C2=O)c1 (stereo not drawn),18.2
22,COc1ccc(-c2cc(C(=O)Nc3ccc(S(=O)(=O)Nc4onc(C)c4C)cc3)c3ccccc3n2)cc1OC,6.03
23,CCOC(=O)c1cnc2c(c(C)nn2CC)c1Cl,7.19

row,SMILES,"hERG current change (%, negative = inhibition) at 1uM [%]"
1,COc1ccc(C(CNC(=O)CSc2ccc(Br)cc2)N2CCOCC2)cc1 (stereo not drawn),-6.08
2,Cc1cc(NC(=O)CSc2nnc(-c3ccc(Br)o3)n2Cc2ccccc2)no1,-5.6
3,Br.N=c1n(CCN2CCOCC2)c2ccccc2n1Cc1ccccc1Br,-51.7
4,Cc1nc(/C=C/c2ccccc2)cc(/C=C/c2ccccc2)n1,3.19
5,COc1ccccc1C(=O)OCn1nnc2ccccc2c1=O,5.54
6,COc1ccc(-c2[nH]ncc2CN(C)CCc2c(C)n[nH]c2C)c(F)c1,18.8
7,COc1cccc(-c2sc3ccc(OC)cc3c2C#CC2(O)CCCCC2)c1,14.4
8,O=C(Cc1cccc(Cl)c1)Nc1ccc(Br)cc1,8.65
9,O=C(CN1C(=O)c2ccccc2C1=O)Nc1ccc(Cl)cn1,24.3
10,COc1ccc(C(C)=O)cc1COC(=O)CCC(=O)N(CC(C)C)c1c(N)n(CC(C)C)c(=O)[nH]c1=O,10.6
11,C/C(=N\NS(=O)(=O)c1ccc(Br)cc1)c1ccc(-n2ccnc2)cc1,11.6
12,O=C(Nc1c(C(=O)NCc2ccco2)cnn1-c1ccccc1)c1cccc(F)c1,-1.17
13,COc1ccc(OC)c(CN2CCCC(CO)C2)c1 (stereo not drawn),13.5
14,Cc1ccc(NC(=O)C2CCN(S(=O)(=O)c3c(C)n[nH]c3C)CC2)c(C)c1,15.5
15,CC1CCN(S(=O)(=O)c2ccc(NC(=O)CN3CCCC(C)C3)cc2)CC1 (stereo not drawn),0.658
16,CC(Oc1ccccc1F)C(=O)NNC(=O)c1cc2ccccc2o1 (stereo not drawn),3.93
17,Cn1c(=O)c2c(nc(Sc3ncnn3CC(=O)NC3CCCCC3)n2C)n(C)c1=O,9.2
18,Cc1cc(=O)oc2cc(OCC(=O)N3CCCC3)c(Cl)cc12,1.63
19,COc1ccc(CNC(=O)C(C)NS(=O)(=O)c2ccc(C)cc2)cc1 (stereo not drawn),3.39
20,CCOC(=O)Nc1ccccc1N1C(=O)c2ccccc2C1=O,11.1
21,Cl.O=C(OC1CCN(CCCl)CC1)C(c1ccccc1)c1ccccc1,15.9
22,CCOc1cc(S(=O)(=O)n2ccnc2)ccc1Cl,13.4
